Source: a melting point compilation (Tetko et al.; mined from patent text by program, amines drawn as free bases though some values may be those of a salt)

melting point: 89 to 90 °C
SMILES: CC(C)c1nc(COCCO)n(C)c1Sc1cc(Cl)cc(Cl)c1
